Reference: the RNAGym collection of RNA variant scans (doi:10.7554/elife.90254)
Read counts are not given, so values of variants with three or more changes are uncertain.

B1: LINE1-mini (parent)
chain: GGCAGAGCUCAACACAGCGUGGCAAAGUGGCUGUGGCUAGACUGCC

Variants of: B1
Assay: self-cleavage, relative activity (ratio to wild type); higher = more cleavage; in vitro, sequencing; the parent is a self-cleaving ribozyme
With C18U U20C G22C U34C G44U the self-cleavage was 0.08.
Variant A11U A12C C37A C42G has a self-cleavage of 0.
With G7C C23A G36U the self-cleavage was 0.02.
Work on G7U A14C A25G C42G yielded a self-cleavage of 0.08.
Variant C15A G17A C42U has a self-cleavage of 0.02.
C3A U9A C46A showed a self-cleavage of 0.49.
In the case of C10A G29U C46G, the self-cleavage is reported as 0.14.
Work on G2C C18A C31A yielded a self-cleavage of 0.01.
For A11U C23G A41G C42A, the self-cleavage was 0.01.
Variant A11C A14G C23A G36U A41U G44A has a self-cleavage of 0.02.
Variant U9C U38G C45U has a self-cleavage of 0.02.
A6U C10U A14U C15G G22C U43A gave a self-cleavage of 0.
In the case of A12C G19U G35U U38G G40C, the self-cleavage is reported as 0.02.
For C10A G19C U28G, the self-cleavage was 0.05.
G2U C13A U20C G33U showed a self-cleavage of 0.12.
In the case of C13U A16G C18U U43C, the self-cleavage is reported as 0.04.
G1U A14G C15U G27U G30C G33A showed a self-cleavage of 0.02.
Variant G5U U9G A24G has a self-cleavage of 0.06.
Variant A16U C18A C37G has a self-cleavage of 0.02.
A6C G27C U34C G40U gave a self-cleavage of 0.24.
G19U U34C G35A showed a self-cleavage of 0.03.
Variant C3U C10A C31A has a self-cleavage of 0.07.
G17C C23U C31A G44A showed a self-cleavage of 0.09.
Work on C3G A4C G33C U34A yielded a self-cleavage of 0.38.
Work on C3G A16U G35U yielded a self-cleavage of 0.03.
Variant C10A C13G G40C has a self-cleavage of 0.01.
Variant G5U G7A A12G C23G U34C C45A C46A has a self-cleavage of 0.02.
G2U G5U U9G G29C showed a self-cleavage of 0.01.
For A16C G17U A39G, the self-cleavage was 0.03.
With G1U A6C C15U G19A U38A the self-cleavage was 0.27.
Work on C3G A4C G33U yielded a self-cleavage of 0.04.
With G7U A16C U32A G35U the self-cleavage was 0.03.
C10G A25C C42A G44A showed a self-cleavage of 0.02.
In the case of C3G G5U C10A A11G A14C U20C G22A U34C, the self-cleavage is reported as 0.01.
U20G G22A G44A gave a self-cleavage of 0.28.
C8G G19C U43C gave a self-cleavage of 0.03.
Variant C3G C18A U28C has a self-cleavage of 0.11.
In the case of C18G G35C C45U, the self-cleavage is reported as 0.07.
Work on C3G G7A A12G G21C C23G yielded a self-cleavage of 0.03.
A11G G21U A25C showed a self-cleavage of 0.02.
C13G A24C U34C gave a self-cleavage of 0.07.
U20C A25U U43A gave a self-cleavage of 0.05.
G2U A14U C15U U32A gave a self-cleavage of 0.02.
A12G A14C C15G G21U gave a self-cleavage of 0.02.
Variant G1C G7U A14C G35U G40A has a self-cleavage of 0.02.
U9G A25G A26U U34C C37G gave a self-cleavage of 0.02.
In the case of G7U A16G U28G, the self-cleavage is reported as 0.05.
With G1A C3G C23U A26U the self-cleavage was 0.71.
G19U G27U C42U U43G gave a self-cleavage of 0.01.
With C15U G27U U28C C45G the self-cleavage was 0.06.
Variant A4G G21U U28C G30C has a self-cleavage of 0.28.
A6G G30A C31U showed a self-cleavage of 0.03.
For A6U A25C A39C, the self-cleavage was 0.35.
G2C G7A C8U U32A showed a self-cleavage of 0.09.
In the case of G1U C8G C15A A16G, the self-cleavage is reported as 0.03.
With C10U C13U C46A the self-cleavage was 0.07.
With G2A C15U A39G the self-cleavage was 0.09.
G19C C37U U38C showed a self-cleavage of 0.01.
In the case of A6C G27U G36U, the self-cleavage is reported as 0.05.
For C13G G29A G40C, the self-cleavage was 0.17.
For A6C U32C U38C G40C, the self-cleavage was 0.19.
C3U G19C C31A gave a self-cleavage of 0.14.
G2C U43A C46U showed a self-cleavage of 0.02.
Work on A14G U32A G36A U43C yielded a self-cleavage of 0.01.
In the case of C3A G21C G27A, the self-cleavage is reported as 1.45.
For G1C G21C C31G, the self-cleavage was 0.05.
Variant C23U G33U G40U has a self-cleavage of 0.03.
A26U G36C G44U gave a self-cleavage of 0.06.
G1U A12U G19C U34G showed a self-cleavage of 0.02.
In the case of C15A A25U U28C, the self-cleavage is reported as 0.04.
In the case of G2C A4G G5C C8A C31U G44C, the self-cleavage is reported as 0.17.
C8U C10A A24G C31U gave a self-cleavage of 0.06.
With G5A A6U C18A the self-cleavage was 0.15.
Variant U28A G36A A41G has a self-cleavage of 0.19.
In the case of G1C A14U C37A, the self-cleavage is reported as 0.02.
C3G G5C C46A showed a self-cleavage of 0.25.
For G1U C3U A6C C10A, the self-cleavage was 0.2.
Work on G5U C8A G17A C18U yielded a self-cleavage of 0.1.
A16G C37A A41U gave a self-cleavage of 0.03.
Variant G7A C18A A26G has a self-cleavage of 0.02.
C18A A26G G29A G33U gave a self-cleavage of 0.04.
In the case of C10U G19A G36A U38A, the self-cleavage is reported as 0.03.
C3U A4G C18U C45U showed a self-cleavage of 0.11.
A11G C18U G21A A24G U32A A39G A41U gave a self-cleavage of 0.01.
